According to the supplement of paper PMC10369915:
The other results are listed elsewhere or left out. Rule as the data show it: active = 3.2 or more and inactive = the rest. Most of these values are background signal.

Tests used:
Test in all cases: enrichment score (SH2-bound / input frequency) (ratio); bacterial display of known human phosphotyrosine sites (pTyr-Var adds point mutants) read by sequencing; higher = stronger binding; tyrosines were phosphorylated by kinases first
Details in all cases: peptide library: pTyr-Var
SHP2 C-SH2 domain E139D = target: SHP2 C-SH2 domain E139D
[1] = target: SHP2 C-SH2 domain wild-type
SHP2 N-SH2 domain L43F = target: SHP2 N-SH2 domain L43F
SHP2 N-SH2 domain T42A = target: SHP2 N-SH2 domain T42A
SHP2 N-SH2 domain T52S = target: SHP2 N-SH2 domain T52S
[2] = target: SHP2 N-SH2 domain wild-type

Measured: enrichment score
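Also: displayed peptides selected on beads carrying the immobilized SH2 domain, with library peptides lacking any tyrosine serving as negative controls.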

GDYYRSLAEVA [YWHAG_Y133_Y133S]
inactive: SHP2 C-SH2 domain E139D 0.737 | [1] 0.73 | SHP2 N-SH2 domain L43F 0.718 | SHP2 N-SH2 domain T42A 0.581 | SHP2 N-SH2 domain T52S 0.812 | [2] 0.793

GDFFRSLAEVA [YWHAG_Y133_Y133S_YF]
inactive: SHP2 C-SH2 domain E139D 0.713 | [1] 0.633 | SHP2 N-SH2 domain L43F 0.744 | SHP2 N-SH2 domain T42A 0.583 | SHP2 N-SH2 domain T52S 0.629 | [2] 0.779

GDFFRYLAEVA [YWHAG_Y133_YF]
inactive: SHP2 C-SH2 domain E139D 0.881 | [1] 0.861 | SHP2 N-SH2 domain L43F 0.827 | SHP2 N-SH2 domain T42A 0.814 | SHP2 N-SH2 domain T52S 0.956 | [2] 0.909

EQAERYDDMAA [YWHAG_Y20]
inactive: SHP2 C-SH2 domain E139D 0.477 | [1] 0.35 | SHP2 N-SH2 domain L43F 0.307 | SHP2 N-SH2 domain T42A 0.459 | SHP2 N-SH2 domain T52S 0.422 | [2] 0.569

LLSVAYQNVVG [YWHAG_Y49_K50Q]
active: SHP2 N-SH2 domain T42A 4.06
inactive: SHP2 C-SH2 domain E139D 1.78 | [1] 1.77 | SHP2 N-SH2 domain L43F 1.96 | SHP2 N-SH2 domain T52S 2.3 | [2] 1.77

QLQQAYQEAFE [YWHAZ_Y149_S145L]
inactive: SHP2 C-SH2 domain E139D 1.2 | [1] 1.08 | SHP2 N-SH2 domain L43F 1.65 | SHP2 N-SH2 domain T42A 1.54 | SHP2 N-SH2 domain T52S 0.968 | [2] 1.51

AERKLYSGAQT [ZAP70_Y178]
inactive: SHP2 C-SH2 domain E139D 0.464 | [1] 0.488 | SHP2 N-SH2 domain L43F 0.438 | SHP2 N-SH2 domain T42A 0.527 | SHP2 N-SH2 domain T52S 0.386 | [2] 0.614

SMGMKYLEEKN [ZAP70_Y451]
inactive: SHP2 C-SH2 domain E139D 0.849 | [1] 0.785 | SHP2 N-SH2 domain L43F 0.944 | SHP2 N-SH2 domain T42A 0.79 | SHP2 N-SH2 domain T52S 0.798 | [2] 0.79

SMEMKYLEEKN [ZAP70_Y451_G448E]
inactive: SHP2 C-SH2 domain E139D 0.867 | [1] 0.923 | SHP2 N-SH2 domain L43F 1.08 | SHP2 N-SH2 domain T42A 0.862 | SHP2 N-SH2 domain T52S 0.843 | [2] 0.877

GADDSYYTARS [ZAP70_Y492]
inactive: SHP2 C-SH2 domain E139D 0.435 | [1] 0.479 | SHP2 N-SH2 domain L43F 0.526 | SHP2 N-SH2 domain T42A 0.483 | SHP2 N-SH2 domain T52S 0.437 | [2] 0.594

GADDSYFTARS [ZAP70_Y492_YF]
inactive: SHP2 C-SH2 domain E139D 0.443 | [1] 0.266 | SHP2 N-SH2 domain L43F 0.442 | SHP2 N-SH2 domain T42A 0.3 | SHP2 N-SH2 domain T52S 0.373 | [2] 0.527

ADDSYYTARSA [ZAP70_Y493]
inactive: SHP2 C-SH2 domain E139D 0.284 | [1] 0.344 | SHP2 N-SH2 domain L43F 0.47 | SHP2 N-SH2 domain T42A 0.401 | SHP2 N-SH2 domain T52S 0.558 | [2] 0.4

ADDSYYTVRSA [ZAP70_Y493_A495V]
inactive: SHP2 C-SH2 domain E139D 0.579 | [1] 0.609 | SHP2 N-SH2 domain L43F 0.612 | SHP2 N-SH2 domain T42A 0.582 | SHP2 N-SH2 domain T52S 0.626 | [2] 0.757

ADDSFYTVRSA [ZAP70_Y493_A495V_YF]
inactive: SHP2 C-SH2 domain E139D 0.588 | [1] 0.509 | SHP2 N-SH2 domain L43F 0.732 | SHP2 N-SH2 domain T42A 0.532 | SHP2 N-SH2 domain T52S 0.625 | [2] 0.81

SDVLSYGVTMW [ZAP70_Y525_W523L]
inactive: SHP2 C-SH2 domain E139D 0.954 | [1] 0.805 | SHP2 N-SH2 domain L43F 0.963 | SHP2 N-SH2 domain T42A 0.61 | SHP2 N-SH2 domain T52S 0.985 | [2] 0.781

RPPELYALMSD [ZAP70_Y569_C564R]
inactive: SHP2 C-SH2 domain E139D 0.883 | [1] 0.911 | SHP2 N-SH2 domain L43F 0.828 | SHP2 N-SH2 domain T42A 0.691 | SHP2 N-SH2 domain T52S 0.827 | [2] 0.732

KAWTIYRPEDS [ZBP1_Y165]
inactive: SHP2 C-SH2 domain E139D 0.74 | [1] 0.5 | SHP2 N-SH2 domain L43F 0.644 | SHP2 N-SH2 domain T42A 0.618 | SHP2 N-SH2 domain T52S 0.667 | [2] 0.568

KAWTIYHPEDS [ZBP1_Y165_R166H]
inactive: SHP2 C-SH2 domain E139D 1.27 | [1] 0.995 | SHP2 N-SH2 domain L43F 0.983 | SHP2 N-SH2 domain T42A 0.97 | SHP2 N-SH2 domain T52S 1.12 | [2] 1.12

EIASHYRHLLR [ZBTB46_Y14_T11A]
inactive: SHP2 C-SH2 domain E139D 0.713 | [1] 0.648 | SHP2 N-SH2 domain L43F 0.774 | SHP2 N-SH2 domain T42A 0.62 | SHP2 N-SH2 domain T52S 0.634 | [2] 0.911

PFADPYFDFEI [ZC3H18_Y371_YF]
inactive: SHP2 C-SH2 domain E139D 0.603 | [1] 0.621 | SHP2 N-SH2 domain L43F 0.614 | SHP2 N-SH2 domain T42A 0.523 | SHP2 N-SH2 domain T52S 0.628 | [2] 0.669

FTDPFYDFEIE [ZC3H18_Y372_A368T_YF]
inactive: SHP2 C-SH2 domain E139D 0.845 | [1] 0.506 | SHP2 N-SH2 domain L43F 0.654 | SHP2 N-SH2 domain T42A 0.635 | SHP2 N-SH2 domain T52S 0.583 | [2] 0.65

VLALWYFFLTH [ZDHHC23_Y127_YF]
inactive: SHP2 N-SH2 domain L43F 2.91 | SHP2 N-SH2 domain T42A 2.94 | SHP2 N-SH2 domain T52S 2.86
active: SHP2 C-SH2 domain E139D 3.48 | [1] 3.39 | [2] 3.44

VMLENYSNLVS [ZFP69_Y109]
inactive: SHP2 C-SH2 domain E139D 1.08 | [1] 0.852 | SHP2 N-SH2 domain L43F 0.994 | SHP2 N-SH2 domain T42A 0.857 | SHP2 N-SH2 domain T52S 1.15 | [2] 1.04

DVQNAYDSNHC [ZFYVE16_Y36]
inactive: SHP2 C-SH2 domain E139D 0.844 | [1] 0.913 | SHP2 N-SH2 domain L43F 0.648 | SHP2 N-SH2 domain T42A 0.564 | SHP2 N-SH2 domain T52S 0.688 | [2] 0.685

SYSGEYGGGGG [ZG16_Y30]
inactive: SHP2 C-SH2 domain E139D 0.542 | [1] 0.43 | SHP2 N-SH2 domain L43F 0.691 | SHP2 N-SH2 domain T42A 0.379 | SHP2 N-SH2 domain T52S 0.629 | [2] 0.629

RGMVMYTSKDR [ZG16B_Y136]
inactive: SHP2 C-SH2 domain E139D 0.763 | [1] 0.918 | SHP2 N-SH2 domain L43F 1.02 | SHP2 N-SH2 domain T42A 0.78 | SHP2 N-SH2 domain T52S 0.774 | [2] 0.871

HSQEDYFECFQ [ZIM2_Y411]
inactive: SHP2 C-SH2 domain E139D 0.815 | [1] 0.737 | SHP2 N-SH2 domain L43F 0.907 | SHP2 N-SH2 domain T42A 0.546 | SHP2 N-SH2 domain T52S 0.618 | [2] 1.09

HSREDYFECFQ [ZIM2_Y411_Q408R]
inactive: SHP2 C-SH2 domain E139D 0.949 | [1] 1.03 | SHP2 N-SH2 domain L43F 0.743 | SHP2 N-SH2 domain T42A 0.736 | SHP2 N-SH2 domain T52S 0.667 | [2] 0.968

IFGEEYEEQPR [ZMYM2_Y1033_V1028I]
inactive: SHP2 C-SH2 domain E139D 0.672 | [1] 0.566 | SHP2 N-SH2 domain L43F 0.702 | SHP2 N-SH2 domain T42A 0.673 | SHP2 N-SH2 domain T52S 0.736 | [2] 0.721

MDDPRYGVCPL [ZNF100_Y6_M8V]
inactive: SHP2 C-SH2 domain E139D 0.696 | [1] 0.776 | SHP2 N-SH2 domain L43F 0.859 | SHP2 N-SH2 domain T42A 0.611 | SHP2 N-SH2 domain T52S 0.671 | [2] 0.696

QFFQGYFNNNF [ZNF236_Y644_S643G]
inactive: SHP2 C-SH2 domain E139D 2.7 | [1] 2.51 | SHP2 N-SH2 domain L43F 1.96 | SHP2 N-SH2 domain T42A 2.05 | SHP2 N-SH2 domain T52S 3.09 | [2] 2.11

TGEKPYECVQC [ZNF24_Y335]
inactive: SHP2 C-SH2 domain E139D 0.663 | [1] 0.51 | SHP2 N-SH2 domain L43F 0.731 | SHP2 N-SH2 domain T42A 0.72 | SHP2 N-SH2 domain T52S 0.704 | [2] 0.648

TWEKPYECVQC [ZNF24_Y335_G331W]
inactive: SHP2 C-SH2 domain E139D 2.28 | [1] 1.94 | SHP2 N-SH2 domain L43F 2.1 | SHP2 N-SH2 domain T42A 2.29 | SHP2 N-SH2 domain T52S 2 | [2] 1.89

QTSSNYDDAMQ [ZNF281_Y531_I527T]
inactive: SHP2 C-SH2 domain E139D 0.314 | [1] 0.19 | SHP2 N-SH2 domain L43F 0.326 | SHP2 N-SH2 domain T42A 0.233 | SHP2 N-SH2 domain T52S 0.343 | [2] 0.386

NWGSPYKSNGC [ZNF347_Y261]
inactive: SHP2 C-SH2 domain E139D 0.86 | [1] 0.737 | SHP2 N-SH2 domain L43F 0.733 | SHP2 N-SH2 domain T42A 0.649 | SHP2 N-SH2 domain T52S 0.634 | [2] 0.929

NWGSPYKSDGC [ZNF347_Y261_N264D]
inactive: SHP2 C-SH2 domain E139D 0.9 | [1] 0.849 | SHP2 N-SH2 domain L43F 0.733 | SHP2 N-SH2 domain T42A 0.687 | SHP2 N-SH2 domain T52S 0.581 | [2] 0.791

MSSHHCDFKKF [ZNF445_Y428_Y428C_YF]
inactive: SHP2 C-SH2 domain E139D 1.69 | [1] 1.27 | SHP2 N-SH2 domain L43F 1.56 | SHP2 N-SH2 domain T42A 1.38 | SHP2 N-SH2 domain T52S 1.61 | [2] 1.53
